This is an account of results in article PMC6919601, “Identification of Plasmodium dipeptidyl aminopeptidase allosteric inhibitors by high throughput screening” (PLoS ONE, 2019).

In all, about 110,000 compounds went through this assay and about 230 (0.21%) showed an effect of 50% or more. Some of the results follow.
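Also: 30 min substrate incubation versus DMSO and 10 µM JCP410 controls.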

For this assay, the target named is DPAP1 (Plasmodium falciparum, UniProt Q8IIJ9). The assay is described as follows: primary screen, percent inhibition; read by cleavage of a fluorogenic dipeptide substrate; higher = more effect of the substance. Also on record: species or system P. falciparum D10 trophozoite lysates; single well.
Chain of DPAP1 (Q8IIJ9 whole entry, looked up): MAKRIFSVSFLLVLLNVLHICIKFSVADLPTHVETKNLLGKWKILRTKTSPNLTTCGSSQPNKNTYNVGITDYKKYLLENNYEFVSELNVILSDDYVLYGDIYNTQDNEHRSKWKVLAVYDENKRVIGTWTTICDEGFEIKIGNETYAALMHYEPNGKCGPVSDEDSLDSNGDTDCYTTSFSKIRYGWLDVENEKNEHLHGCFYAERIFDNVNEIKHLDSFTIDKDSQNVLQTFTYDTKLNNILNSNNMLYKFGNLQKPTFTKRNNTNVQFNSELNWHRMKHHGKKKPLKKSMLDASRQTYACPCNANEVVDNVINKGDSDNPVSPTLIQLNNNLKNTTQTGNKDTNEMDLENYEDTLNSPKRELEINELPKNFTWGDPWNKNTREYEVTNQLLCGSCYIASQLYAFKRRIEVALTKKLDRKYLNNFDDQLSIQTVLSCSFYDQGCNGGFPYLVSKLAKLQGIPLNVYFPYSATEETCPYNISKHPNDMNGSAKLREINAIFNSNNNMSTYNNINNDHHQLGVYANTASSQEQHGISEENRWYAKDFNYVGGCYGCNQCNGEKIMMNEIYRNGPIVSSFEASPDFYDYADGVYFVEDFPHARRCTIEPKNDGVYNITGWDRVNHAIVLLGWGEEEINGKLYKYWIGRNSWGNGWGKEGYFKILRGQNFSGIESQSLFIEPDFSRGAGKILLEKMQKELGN
As to `O=C(NC1CCCCC1)c1cc(-c2ccncc2)nc2ccc(S(=O)(=O)N3CCOCC3)cc12`, the “% Inhibition @ 10 uM” value worked out at 2.35%.
The same measure for `O=C(Cn1nc(-c2ccccc2)c2ccccc2c1=O)N1CCC(Cc2ccccc2)CC1`: -6.78%.
For `COC(=O)Nc1sc2c(c1C(N)=O)CCCCCC2`, the “% Inhibition @ 10 uM” value amounted to 33%.
As to `CCc1ccc(NC(=O)C23CCC(C)(C(=O)C2=O)C3(C)C)cc1` (centres unmarked), the “% Inhibition @ 10 uM” value is 6%.
Turning to `COc1ccc(NC(=O)c2cccc(OC(F)F)c2)cc1OC`, the “% Inhibition @ 10 uM” value is 1.38%.
The same measure for `CN(C)c1ccc(/C=C2\SC(N3CCCCC3)=NC2=O)cc1`: 16.5%; for `CC1CC(=O)C2=C(C1)OC(N)=C(C#N)C2c1ccc(C(F)(F)F)cc1` (centres unmarked): -3.13%; for `COc1cc(NS(=O)(=O)c2ccc(Nc3nc(-c4cccnc4)cs3)cc2)nc(OC)n1`: 11.2%.
The same measure for `CCOc1ccc(C2C(C#N)=C(N)N(c3ccc(C)cc3)C3=C2C(=O)CCC3)cc1` (centres unmarked): -4.48%; for `C#CCOc1ccc(/C=C2/NC(=O)N(CC)C2=O)cc1OCC`: -9.36%.
Turning to `CC(NC(=O)C1CC(c2ccc(F)cc2)=NO1)c1ccccc1` (centres unmarked), the “% Inhibition @ 10 uM” value is given as -2.16%.
Take `Cc1cc(/C=C2/C(=N)N3C(=NC2=O)SN=C3S(=O)(=O)CC(C)C)c(C)n1-c1ccccc1`: the “% Inhibition @ 10 uM” value was -1.58%.
On to `CCOc1cc(C2CC(=O)NC3=C2C(=O)CC(C)(C)C3)cc(Br)c1O` (centres unmarked), for which the “% Inhibition @ 10 uM” value came to 1.31%.
With `CC(C)NC(=O)Cn1ccc2cc(S(=O)(=O)N3CCCCC3)ccc21` the figure was -2.39%; with `FC(F)Oc1ccccc1C1CC(c2ccc(Br)s2)Nc2ncnn21` (centres unmarked), 0.219%; with `O=C(C1CC2CCC1C2)N1CCN(C(=O)C2CC3CCC2C3)CC1` (centres unmarked), 5.51%.
With `O=C(O)/C=C/C(=O)OCC1CCCO1` (centres unmarked), the “% Inhibition @ 10 uM” value is on record as -2.66%.
The same measure for `CCC(=O)Nc1nn2c(-c3ccc(C)cc3)nnc2s1`: -1.26%.
Regarding `CN(C)CCN(Cc1ccccc1)Cc1cccc(Cl)c1`, the “% Inhibition @ 10 uM” value is -2.34%.
Consider `COc1cccc(/C=C2/N=C(c3cccc4ccccc34)OC2=O)c1OC`, for which the “% Inhibition @ 10 uM” value is 3.9%.
Regarding `Cc1ccccc1S(=O)(=O)Cc1ccc(C(=O)n2ccnc2)o1`, the “% Inhibition @ 10 uM” value is on record as -4.53%.
`Cn1c2ccccc2c2c(C(=O)NCC3COc4ccccc4O3)cn(C3CCCC3)c(=O)c21` (centres unmarked): the “% Inhibition @ 10 uM” value is -5.27%.
With `OCCN1CCN(Cc2cc(F)ccc2F)CC1`, the “% Inhibition @ 10 uM” value came to 1.9%.
Turning to `COc1ccccc1/C=C/C(=O)c1cc2c(nc1C)CCCC2`, the “% Inhibition @ 10 uM” value is on record as -3.79%.
Take `Cc1ccc(S(=O)(=O)N(CC(=O)NCCc2ccccc2)Cc2ccccc2)cc1`: the “% Inhibition @ 10 uM” value is recorded as -7.18%.
In the case of `O=C(Nc1nc(C23CC4CC(CC(C4)C2)C3)cs1)c1ccc2c(c1)OCO2`, the “% Inhibition @ 10 uM” value came to 9.11%.
With `O=C(c1ccc([N+](=O)[O-])o1)N1CCN(C(=O)c2ccc([N+](=O)[O-])o2)CC1` the figure was -0.216%; with `O=C(Cn1cc2c(n1)CCCC2)NCc1ccc2c(c1)OCO2`, 0.137%.
The same measure for `CCOC(=O)C1=C(C)N=c2s/c(=C\c3cccc(O)c3)c(=O)n2C1c1cc(OC)ccc1OC` (centres unmarked): -0.339%.
In the case of `COc1ccc(NC(=O)CN(c2cc(C)ccc2OC)S(C)(=O)=O)cc1`, the “% Inhibition @ 10 uM” value is -0.796%.
As for `N#CC1=C(SCc2ccccc2)NC(=O)CC1c1cccc2ccccc12` (centres unmarked), the “% Inhibition @ 10 uM” value was -0.294%.
On to `Fc1ccccc1-n1nnnc1SCc1ccc(Cl)cc1Cl`, for which the “% Inhibition @ 10 uM” value is 2.94%.
Take `C=CCn1c(SCc2c(C)noc2C)nc2sc(-c3ccccc3)cc2c1=O`: the “% Inhibition @ 10 uM” value was -7.23%.
Turning to `Oc1ncc(COCC(F)(F)C(F)F)c(O)n1`, the “% Inhibition @ 10 uM” value is listed as -5.42%.
With `COc1ccc(C(=O)/C=C/c2ccc(N3N=C(c4ccccc4)CC3c3ccccc3)cc2)cc1` (centres unmarked) the figure was -5.23%.
Take `COc1ccc(C(=O)/C=C/c2ccc(-c3ccc(OC)cc3)o2)cc1`: the “% Inhibition @ 10 uM” value was 3.34%.
With `Nc1ncnc2c1ncn2CC(O)CO` (centres unmarked), the “% Inhibition @ 10 uM” value is given as -4.27%.
Take `CCOC(=O)N1CCC(NC(=O)Cn2c3ccccc3c3cnnc(O)c32)CC1`: the “% Inhibition @ 10 uM” value turned out to be 3%.
Consider `C=CCOc1cccc(C2c3c(n[nH]c3-c3cc(C)ccc3O)C(=O)N2CCO)c1` (centres unmarked), for which the “% Inhibition @ 10 uM” value is reported as -6.64%.
Consider `CC1=NC2=C(C(=O)CC(C)(C)C2)C(c2cccc(Cl)c2)/C1=C(\O)OC(C)C` (centres unmarked), for which the “% Inhibition @ 10 uM” value is given as -2.18%.
As for `Cc1ccc(S(=O)(=O)NCCOc2nc(N3CCOCC3)nc(N3CCOCC3)n2)cc1`, the “% Inhibition @ 10 uM” value worked out at 5.5%.
For `COc1ccccc1N1CCN(Cc2cccc(O)c2)CC1`, the “% Inhibition @ 10 uM” value worked out at 1.4%.
Turning to `Cc1nc2ccccc2nc1OCC(=O)c1ccc(Cl)cc1`, the “% Inhibition @ 10 uM” value is listed as -3.23%.
In the case of `Clc1ccc2c(c1)c1c(n2Cc2ccccc2)-c2n[nH]cc2CC1`, the “% Inhibition @ 10 uM” value is on record as 4.57%.
Take `CC(C)c1ccc(-n2nnc(-c3nc(-c4ccc5c(c4)OCO5)no3)c2N)cc1`: the “% Inhibition @ 10 uM” value is 4.23%.
For the compound `CC1=C(C)CC(C(=O)Nc2ccc(Br)cc2)C(C(=O)O)C1` (centres unmarked), the “% Inhibition @ 10 uM” value was -3.39%.
With `O=C(CSc1ccccn1)Nc1ccc(F)cc1` the figure was -1.06%; with `Cn1cc(S(=O)(=O)N2CCOCC2)cc1C(=O)Nc1nccs1`, -2.17%; with `CCCN1Cc2cccc(C(=O)NCCc3ccccc3)c2C1=O`, -2.29%.
The same measure for `O=S(=O)(/N=C/c1ccc(Br)cc1)c1cccs1`: 2.09%.
As to `Cc1ccnc(NC(c2ccc(OC(C)C)cc2)c2ccc3cccnc3c2O)c1` (centres unmarked), the “% Inhibition @ 10 uM” value was -8.95%.
On to `COCCNC(=O)c1ccc(CS(=O)(=O)c2c(Cl)cccc2Cl)o1`, for which the “% Inhibition @ 10 uM” value is reported as -4.71%.
As for `COC(=O)c1sccc1-n1c(S)c(C#N)c(N)c(C#N)c1=N`, the “% Inhibition @ 10 uM” value is recorded as -2.21%.
Regarding `CC(C)C[C@H](NC(=O)OCc1ccccc1)C(=O)NC(C#N)CCS(C)(=O)=O` (some centres unmarked), the “% Inhibition @ 10 uM” value was -3.04%.
The same measure for `Cc1sc(NC(=O)c2cc(-c3ccc4c(c3)OCO4)nc3ccccc23)c(C(N)=O)c1C`: 6.08%; for `CCN(CC)C(=O)CSc1nc(-c2ccc(OC)cc2)nc2c1Cc1cccc(OC)c1O2`: 6.55%; for `NC(=O)CSc1nnc(CSc2ncccn2)n1-c1ccccc1`: -2.45%.
Take `O=C(NC(C(F)(F)F)C(F)(F)F)N1CCOCC1`: the “% Inhibition @ 10 uM” value is -6.06%.
Consider `O=C(c1cc2nc(-c3ccc4c(c3)OCO4)cc(C(F)(F)F)n2n1)N1CCN2CCCC2C1` (centres unmarked), for which the “% Inhibition @ 10 uM” value is reported as 4.49%.
`Cn1nc(-c2ccccc2F)c2cc(C(=O)N3CCc4ccccc4C3)sc21`: the “% Inhibition @ 10 uM” value is listed as -2.16%.
As for `Cc1ccc(-c2ccc(C3C(C#N)=C(N)OC4=C3C(=O)CCC4)o2)cc1` (centres unmarked), the “% Inhibition @ 10 uM” value is recorded as -0.864%.
With `O=[N+]([O-])c1ccc(CN2CCSCC2)cc1` the figure was 1.38%.
